From PMC6919601, “Identification of Plasmodium dipeptidyl aminopeptidase allosteric inhibitors by high throughput screening” (PLoS ONE, 2019)
“And” between values parts separate entries of the source, which are not always exact repeats. Equal values may be shown once. The campaign covered roughly 110,000 compounds. About 230 (0.21%) showed an effect of 50% or more. The list shows a part of the results.

target: DPAP1 (Plasmodium falciparum, UniProt Q8IIJ9); experiment: primary screen, percent inhibition; read by cleavage of a fluorogenic dipeptide substrate; higher = more effect of the substance; parameters: species or system P. falciparum D10 trophozoite lysates; single well
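Further: 30 min substrate incubation versus DMSO and 10 µM JCP410 controls.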

Chain of DPAP1 (Q8IIJ9 whole entry, looked up): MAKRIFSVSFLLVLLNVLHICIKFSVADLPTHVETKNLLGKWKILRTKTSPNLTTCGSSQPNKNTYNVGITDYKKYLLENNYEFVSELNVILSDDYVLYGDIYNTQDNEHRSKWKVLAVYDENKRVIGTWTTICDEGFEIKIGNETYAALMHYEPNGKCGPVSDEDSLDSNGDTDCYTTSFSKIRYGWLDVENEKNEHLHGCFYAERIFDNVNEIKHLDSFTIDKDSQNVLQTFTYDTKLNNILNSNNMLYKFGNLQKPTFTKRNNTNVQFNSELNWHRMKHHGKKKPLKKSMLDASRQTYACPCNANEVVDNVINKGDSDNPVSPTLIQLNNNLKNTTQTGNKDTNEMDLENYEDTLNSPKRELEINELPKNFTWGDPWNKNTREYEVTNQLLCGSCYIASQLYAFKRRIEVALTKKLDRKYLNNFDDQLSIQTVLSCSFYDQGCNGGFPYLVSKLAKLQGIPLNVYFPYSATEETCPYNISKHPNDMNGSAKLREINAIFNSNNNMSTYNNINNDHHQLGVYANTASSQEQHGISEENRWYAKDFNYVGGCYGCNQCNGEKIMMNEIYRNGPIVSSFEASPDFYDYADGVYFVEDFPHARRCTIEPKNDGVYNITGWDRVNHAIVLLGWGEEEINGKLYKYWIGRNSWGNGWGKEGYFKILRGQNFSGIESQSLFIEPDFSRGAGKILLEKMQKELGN

Row | SMILES | % Inhibition @ 10 uM
1 | COc1ccc2c(=O)c(-c3ccccc3C)c(C(F)(F)F)oc2c1C | 9.21%
2 | CSC1=C(C#N)C2(CCCCC2)C(C#N)C(=O)N1 (stereo not drawn) | -0.736%
3 | COc1ccc(CN2CCN(Cc3cccc(Br)c3)CC2)c(OC)c1OC | -0.822%
4 | CCOC(=O)C1=CN(Cc2ccc(OC)cc2)C=C(C(=O)OCC)C1c1ccc2c(c1)OCO2 | -1.48%
5 | CCCCC(=O)Nc1ccc(N2CCN(S(C)(=O)=O)CC2)cc1 | 0.343%
6 | Cc1ccc2c(cnn2C(=O)CCC(=O)NCCCOC(C)C)c1 | -2.88%
7 | CC(=O)N/C(=C\c1ccccc1)C(=O)Nc1ccc(C)cc1 | -2.66%
8 | CCCNS(=O)(=O)c1ccc([N+](=O)[O-])cc1 | -3.55%
9 | CCCCOc1ccc(C2C(=O)N(C3CCCCC3)CC(=O)N2Cc2cccs2)cc1 (stereo not drawn) | -0.519%
10 | O=[N+]([O-])c1ccc(N2CCN(C3CCCCCC3)CC2)cc1 | -1.81%
11 | c1ccc(C(c2ccccc2)N2CCN(c3ncnc4[nH]cnc34)CC2)cc1 | -3.24%
12 | Cc1ccc(-c2nc(C#N)c(NCc3ccccc3)o2)cc1 | -2.59%
13 | COCCNC(=O)CSc1cn(CC(=O)N2CCCC2)c2ccccc12 | -1.97%
14 | COc1ccc(CCNC(=O)c2cc(O)nc3ccc(S(=O)(=O)N4CCCC4)cc23)cc1OC | 3.89%
15 | O=[N+]([O-])c1ccc(CNc2ccc(F)c(F)c2)s1 | 5.2%
16 | CCOC(=O)c1cnc2ccc(C(=O)OC)cc2c1N1CC2(C)CC1CC(C)(C)C2 (stereo not drawn) | 0.884%
17 | CC(C)C[C@H](NC(=O)NCCc1cccs1)C(=O)NCC#N | -4.72%
18 | N#CCNC(=O)[C@H](CS(=O)(=O)Cc1ccccc1)NC(=O)c1ccncc1 | -3.49%
19 | CC/N=C1/SC(CC(=O)Nc2ccc(N3CCOCC3)cc2)C(=O)N1CC (stereo not drawn) | 2.15%
20 | COc1ccc(NC(=O)CN(c2cccc(Cl)c2C)S(C)(=O)=O)cc1 | -0.864% and 1.19%
21 | CC1=C(C(=O)Nc2cccc(C)c2)C(c2ccccc2)NC(S)=N1 (stereo not drawn) | -0.582%

Row | SMILES | % Inhibition @ 10 uM
22 | CCC1(c2ccc3cc(OC)ccc3c2)SC(NC(C)=O)=NN1C(C)=O (stereo not drawn) | 1.5%
23 | COC(=O)c1cccc(-n2c(C)cc(C=C3C(=O)c4ccccc4C3=O)c2C)c1C | 2.17%
24 | COc1ccc(CN(C(=O)NC2CCCC2)C2CCN(C(C)=O)CC2)cc1 | 4.43%
25 | O=C(Nc1sc2c(c1C(=O)O)CCC2)c1ccccc1 | -2.17%
26 | C=CCN1CC(c2nc3ccccc3n2CC(=C)C)CC1=O (stereo not drawn) | 1.67%
27 | COc1ccc(C(=O)Cn2c3ccccc3n3nc(C)nc23)cc1OC | -7.02%
28 | CCn1c2ccccc2c2cc(CNc3ccccc3Cl)ccc21 | 1.26%
29 | CCCCCOc1ccc(C(N)CC(=O)O)cc1 (stereo not drawn) | -1.52%
30 | O=C(O)C1=Cc2sc3c(c2CS1)CCCC3 | 4.65%
31 | C=CCN1C(=O)/C(=C\c2ccc(N(CC)CC)cc2)C(=O)NC1=S | 2.6%
32 | Cc1sc2nc(SCC(=O)N3CCOCC3)n(-c3ccc(Cl)cc3)c(=O)c2c1C | 4.09%
33 | CCc1nnc2sc(/C=C/c3ccccc3)nn12 | 3.88%
34 | COc1ccc(-c2c(C#N)c(SCC(N)=O)nc3c2C(=O)CC(C)(C)C3)cc1 | -0.99%
35 | CN(C)CCCn1c(=O)c2nc[nH]c2n(C)c1=O | 2.14%
36 | CC(C)N(CCc1ccncc1)C(=S)NCc1ccccc1 | -4.53%
37 | COc1ccc(N2C(=O)CC(N(Cc3ccco3)C(=O)CCC(=O)O)C2=O)cc1 (stereo not drawn) | 1.08%
38 | CC12CCC(CN(CC(O)Cn3c4ccc(Cl)cc4c4cc(Cl)ccc43)C1)C2(C)C (stereo not drawn) | -2.44%
39 | COc1ccc2c(c1)cc1c(=O)n(CC(=O)NCc3ccc(Cl)cc3)nc(C)n12 | 4.84%
40 | CC1CCc2c(sc(NC(=O)C3CC3)c2C(N)=O)C1 (stereo not drawn) | 4.52%
41 | S=C(c1ccc2c(c1)OCO2)N1CCOCC1 | 0.0792%
42 | COc1ccc2c(c1)C(=O)N(Cc1ccccc1)C1CCCCC21 (stereo not drawn) | 0.727%

Row | SMILES | % Inhibition @ 10 uM
43 | CCCCCOc1ccc2nc3c(nc2c1)C(=O)c1ccccc1C3=O | -1.6%
44 | Cc1ccc2oc(=O)c3cc(C(=O)NCCCN(C)Cc4ccccc4)sc3c2c1 | 3.33%
45 | CCOc1ccc(-n2c(SCc3nc(-c4cccs4)no3)nnc2-c2ccncc2)cc1 | -0.45%
46 | COc1cccc(/C=C/c2nc(C#N)c(NC(C)c3ccccc3)o2)c1 (stereo not drawn) | 0.895%
47 | CCOc1ccc(C2C3=C(O)CC(C)(C)CC3=NC(C)=C2C(=O)Nc2ccccc2OC)cc1 (stereo not drawn) | 3.05%
48 | COc1ccc(-c2csc3ncn(CC(=O)Nc4ccc(C)cc4C)c(=O)c23)cc1 | -0.478%
49 | COc1ccc(Nc2nc(N)c3ccccc3n2)cc1 | -0.105%
50 | CCCN1C(=O)CCN(C(C)=O)c2ccccc21 | 2.85%
51 | O=c1oc2ccccc2n1CCCOc1ccc(Cl)cc1 | -0.99%
52 | COC(=O)c1ccc(-c2cc(C(=O)O)c3c(C)[nH]nc3n2)cc1 | 0.0654%
53 | CC1=NN(c2ccccc2)C(=O)/C1=C\N1CCN(/C=C2/C(=O)N(c3ccccc3)N=C2C)CC1 | -3.26%
54 | COC(=O)c1sccc1NC(=O)C1=C(C)C(=O)OC12CCCCCC2 | -11.2%
55 | Cc1ccn2c(NC(=O)COc3ccc(Cl)cc3)c(-c3cccs3)nc2c1 | -3.48%
56 | c1ccc2sc(SCCCN3CCOCC3)nc2c1 | 4.42%
57 | CCOc1ccccc1CNC(=O)Cn1ccc2cc(S(=O)(=O)N3CCCC3)ccc21 | -8.45%
58 | C/N=c1\c(NS(=O)(=O)Cc2ccccc2)c(O)oc2ccccc12 | 2.5%
59 | COc1ccc(C2=NN(CCC(=O)NCCc3ccc(Cl)cc3)C(=O)CC2)cc1 | 2.35%
60 | COc1ccc2nc(/N=C/c3nc(-c4ccc(C)cc4)oc3O)sc2c1 | -3.44%
61 | Cc1nn(CC(=O)NCCCN2CCOCC2)c(=O)c2cccn12 | -5.78%
62 | Cc1nn(C)cc1CNC(=O)c1nn2c(C(F)(F)F)cc(-c3cccs3)nc2c1Cl | -4.64%
63 | CC1CCCN(C(=O)c2ccc(COc3ccccc3Cl)o2)C1 (stereo not drawn) | 10.9%
